Molecules are shown by their SMILES. Among all 46,000 compounds or so, about 60 (0.1%) were called active. Not shown: some 3% with an inconclusive outcome. The call rests on the fitted dose curve; in most records, active means well fitted inhibition curve with a large enough effect; inconclusive means small, poorly fitted or top-dose-only effect; inactive means no such curve, though single readings can be large or run the other way. The list shows a part of the results.

The assay in a line: Primary qHTS assay for Inhibitors of ovarian cancer metastasis using an organotypic tumor microenvironment (TME) model. Further: nearly all actives have a fitted effect of over 65% in size.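 On activity change, negative = inhibition: plate controls were DMSO wells for no effect and tomatine positive control wells for full effect.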 Particulars: SKOV3ip1-GFP adhesion/invasion on 3D omental model, fluorescence; series mostly up to 45.8 µM; activity change, negative = inhibition: at the top concentration. The method in brief:
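A 3D layer of primary human omental fibroblasts, mesothelial cells, fibronectin and collagen I, grown 48 hr, received SKOV3ip1-GFP cells in serum-free medium plus compounds at 0.36-46 umol/L. After 2 hr RT and 16 hr 37 C, fixed adherent GFP cells were counted; normalized to DMSO and tomatine.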
(In qHTS, concentration-response curves come from the screen itself.)
For the compound `CCc1ccccc1NC(=O)C(=O)NCCCN1CCOCC1`, the “activity change, negative = inhibition” value was inactive: -10%.

As to `COc1cc2c(cc1OC)C(COc1cccc(C(F)(F)F)c1)N(C(=O)c1ccc(S(=O)(=O)N3CCCC3)cc1)CC2` (stereo not drawn), the “activity change, negative = inhibition” value was inactive: -7.29%. On to `O=C(CSCn1nnc2c(=O)[nH]c(Cc3ccc(F)cc3)nc21)Nc1cccc(C(F)(F)F)c1`, for which the “activity change, negative = inhibition” value was inactive: 21.7%.

For `CCOc1ccc(N(C)S(=O)(=O)c2ccc3c(c2)CCCN3C(C)=O)cc1`, the “activity change, negative = inhibition” value was inactive: -5.51%. Turning to `CC(=O)Nc1ccc(NC(=O)CCCn2nc(C)c3sc4ccccc4c3c2=O)cc1`, the “activity change, negative = inhibition” value was inactive: -14.6%. With `CCOc1ccc(NS(=O)(=O)c2cc3c(cc2Cl)NC(=O)CO3)cc1`, the “activity change, negative = inhibition” value is inactive: 9.52%. The same measure, in the same setting: the result for `O=C(C[C@@H]1CC=CCCC(=O)O[C@H](c2ccccc2)CNC1=O)NCc1ccc(Cl)cc1` reads inactive: 41.8%. Regarding `Cc1cc(C)c(NC(=O)CCS(=O)(=O)c2cc3c(cc2Cl)NC(=O)CO3)c(C)c1`, the result was inactive.

In the case of `O=C(Cn1c(SCc2ccccc2F)nc2ccncc21)Nc1ccccc1C(F)(F)F`, the call was inactive. As to `O=C(Cn1c(=O)c2cccn2c2cccnc21)NCc1cccc(F)c1`, the “activity change, negative = inhibition” value is inactive: 3.35%. With `Cc1ccc(S(=O)(=O)Nc2cccc(-c3cn4cccc(C)c4n3)c2)c(C)c1`, the call was inactive. For `CCOc1ccc(NC(=O)c2ccc3[nH]c(C)c(C)c3c2)cc1`, the “activity change, negative = inhibition” value is inactive: 0.759%. Regarding `Cc1nc2ccc(S(=O)(=O)N(CC(=O)Nc3ccc(F)cc3F)Cc3ccccc3)cc2s1`, the “activity change, negative = inhibition” value was inactive: 2.62%. For the compound `CCOc1cc(C(=O)NCCc2sc(-c3ccc(F)cc3)nc2C)cc(OCC)c1OCC`, the outcome was inactive. On to `CNC(=O)CCCN1C(=O)c2cccnc2Sc2ccccc21`, for which the “activity change, negative = inhibition” value was inactive: 2.4%. On to `CC(NC(=O)CSc1n[nH]c(-c2ccccc2Cl)n1)c1nc2ccccc2[nH]1` (stereo not drawn), for which the outcome was inactive. Turning to `Cc1ccsc1CN1CCc2nc(Nc3ccccc3)ncc2C1`, the “activity change, negative = inhibition” value was inactive: -8.7%. As for `CCCCC(=O)OC1=C(C(=O)c2ccccc2)N(CCC)S(=O)(=O)c2ccccc21`, the “activity change, negative = inhibition” value was inactive: -24.8%. Turning to `COc1ccccc1NC(=O)Cn1c(=O)n(Cc2ccccc2)c(=O)c2c1c1cc(C)ccc1n2C`, the “activity change, negative = inhibition” value was inactive: 15%. With `O=C(Cn1ccc2cc(S(=O)(=O)N3CCCCC3)ccc21)NCCc1ccccc1Cl`, the “activity change, negative = inhibition” value is inactive: -4.12%. Take `CCCCN(C)C(=O)c1cn(C)c2ccc(S(=O)(=O)N3CCC(C)CC3)cc2c1=O`: the “activity change, negative = inhibition” value is inactive: 8.49%.

`CCc1ccc(NC(=O)CSC2=Nc3ccccc3C3=NC(CCC(=O)NCc4ccccc4)C(=O)N23)cc1` (stereo not drawn): the “activity change, negative = inhibition” value was inactive: 8.43%. Take `Cc1ccccc1NC(=O)Cn1cc(C(=O)c2cccs2)c2ccccc21`: the “activity change, negative = inhibition” value is inactive: -15.9%. Same read-out and setting: the result for `O=c1[nH]cnc2[nH]ncc12` reads inactive: 8.12%; that for `CC1CCN(S(=O)(=O)c2ccc3c(c2)CCN3)CC1`, inactive: -1.13%.

As for `CC1=C(C(=O)Nc2cccc(Cl)c2C)C2(CCCCCC2)OC1=O`, the “activity change, negative = inhibition” value was inactive: -27.6%. Turning to `O=C(c1cnn(-c2ccc(F)cc2)c1-n1cccc1)N1CCN(c2ccc(F)cc2)CC1`, the outcome was inactive. With `O=S(=O)(NCCS(=O)(=O)N1CCN(c2ccccc2)CC1)c1ccc(Br)cc1`, the result was inactive. The same measure, in the same setting: in the case of `COc1ccccc1Nc1sc(C(=O)c2ccc(C)cc2C)c(N)c1S(=O)(=O)c1ccccc1` it was “inactive”. Consider `CCc1ccc(S(=O)(=O)c2nnn3c2nc(Nc2cc(OC)ccc2OC)c2sccc23)cc1`, for which the compound was called inactive. On to `COc1ccccc1C(=O)Nc1ccccc1OCc1cc(=O)n2ccccc2n1`, for which the “activity change, negative = inhibition” value is inactive: -18.3%. `Cc1ccc2oc(C(=O)Nc3cccc(Cl)c3)cc(=O)c2c1`: the “activity change, negative = inhibition” value is inactive: 1.95%. Turning to `O=C(Cc1ccccc1)Nc1sc2c(c1C(=O)Nc1ccc(Br)cc1)CCC2`, the “activity change, negative = inhibition” value was inactive: -5.38%.

Take `Cc1ccc(CCNC(=O)CS(=O)Cc2nc(-c3ccccc3Cl)oc2C)cc1` (stereo not drawn): the “activity change, negative = inhibition” value was inactive: 2.5%. As to `COc1ccc(CNc2nc3c(-c4ccccc4)nnn3c3ccccc23)cc1`, the compound was classed as inactive. Regarding `O=C(NCCc1ccccc1)c1nc(-c2ccc(Cl)cc2)n2c1CCCCC2`, the “activity change, negative = inhibition” value was inactive: 0.402%.

For `COc1cccc(N2CC(NC(=O)c3ccc(S(=O)(=O)N4CCOCC4)cc3)CC2=O)c1` (stereo not drawn), the “activity change, negative = inhibition” value was inactive: 1.74%.

Take `O=C(Nc1ccc(F)cc1)c1csc2c1CCCCC2`: the “activity change, negative = inhibition” value is inactive: 15.6%. For `Cc1ccccc1NC(=O)CSc1nc2nccnc2c(=O)n1CCc1c[nH]c2ccccc12`, the “activity change, negative = inhibition” value is inactive: -15.1%. As for `COc1ccc(S(=O)(=O)c2cnc3ccc(Cl)cc3c2N2CCCCC2C)cc1` (stereo not drawn), the “activity change, negative = inhibition” value is inactive: -4.66%.

`Cc1cc(C)cc(OCC(=O)Nc2c(C)ccc3nsnc23)c1`: the “activity change, negative = inhibition” value was inactive: 0.396%.

For the compound `CC1CCCc2sc3nc(SCC(=O)c4ccc(Br)cc4)nc(N)c3c21` (stereo not drawn), the “activity change, negative = inhibition” value is inactive: 2.25%. In the case of `Cc1cccc(NC(=O)CSc2nccn2Cc2ccc(F)cc2)c1C`, the “activity change, negative = inhibition” value was inactive: 1.23%. In the case of `CCCCN(C)CCCNC(=O)Cn1ncc2c3ccccc3n(Cc3ccccc3)c2c1=O`, the compound was classed as inactive. Consider `CN(Cc1ccccc1)S(=O)(=O)c1nnc(NC(=O)c2cccc(Cl)c2)s1`, for which the outcome was inactive. For `Cc1cccc(N2CCN(C(=O)Cn3nc(C)n4cccc4c3=O)CC2C)c1` (stereo not drawn), the “activity change, negative = inhibition” value is inactive: 3.4%.

For the compound `CCOc1ccc(N(CC)S(=O)(=O)c2cc(Br)cc3c2N(C(C)=O)C(C)C3)cc1` (stereo not drawn), the “activity change, negative = inhibition” value is inactive: 18.5%.

Take `COc1ccc(NC(=O)CSc2nc(-c3ccco3)cc(C(F)(F)F)n2)cc1OC`: the “activity change, negative = inhibition” value is inactive: -11%. For the compound `COc1ccccc1NC(=O)CSC1=Nc2ccccc2C2=NC(CC(=O)NCc3ccco3)C(=O)N12` (stereo not drawn), the “activity change, negative = inhibition” value was inactive: -7.61%.

`CC(=O)c1cccc(NC(=O)c2oc3c(c2C)-c2nn(Cc4ccc(Cl)cc4)cc2CC3)c1`: the “activity change, negative = inhibition” value is inactive: -18%. Same read-out and setting: the result for `COc1ccc(S(=O)(=O)N2CCCN(CC(=O)Nc3ccc(NC(C)=O)cc3)CC2)cc1` reads inactive: 2.01%; that for `COCc1nc2ccccc2n1CCOc1cccc(C)c1`, inactive: -10.7%.

Regarding `O=C(CN1N=C(c2ccc(Cl)cc2)CCC1=O)NCCc1ccc(Cl)cc1`, the “activity change, negative = inhibition” value was inactive: -1.93%. `Cc1ccc(C(=O)Nc2cc3c(cc2C)n(C)c(=O)c(=O)n3C)cc1`: the call was inactive.

Turning to `Cc1cc(O)c2c(c1)C(=O)c1cc(O)cc(O)c1C2=O`, the “activity change, negative = inhibition” value is inactive: -13.1%. In the case of `CCOc1ccccc1CN1CCN(S(=O)(=O)c2ccccc2)CC1`, the “activity change, negative = inhibition” value is inactive: 9.72%. For `CCCOC(=O)c1c(NC(=O)c2nc3ncccn3n2)sc(C(N)=O)c1C`, the outcome was inactive. Take `Cc1nc2c(C(=O)NCCCN(CC(C)C)CC(C)C)cnn2c(C)c1Cc1c(F)cccc1Cl`: the “activity change, negative = inhibition” value was inactive: 4.76%. `CCCc1nn2c(=O)cc(COC(=O)c3ccccc3NC(=O)COc3ccccc3F)nc2s1`: the “activity change, negative = inhibition” value is inactive: 3.29%. The same measure, in the same setting: in the case of `CCOc1ccc(CNC(=O)C2Cc3ccccc3N2C(=O)CC)cc1OC` (stereo not drawn) it was inactive: -2.3%; in that of `COc1ccc(NC(=O)c2oc3ccc(S(=O)(=O)N4CCCCC4)cc3c2C)cc1`, inactive: 0.192%.

In the case of `Cc1cccc(CNC(=O)CCn2c(=O)c3cccn3c3ccc(F)cc32)c1`, the call was inactive.

As for `COc1ccc(OC)c(CNC(=O)c2ccc(Sc3ccc(C)cc3)c(N)c2)c1`, the “activity change, negative = inhibition” value is inactive: -55.8%.

For the origin of these results see PubChem BioAssay AID1963576 (National Center for Advancing Translational Sciences (NCATS), 2024).
